The list shows a part of the results.
Target: T1, MBP-FoxP1dN (Mus musculus, UniProt P58462 326-579)
T1 sequence: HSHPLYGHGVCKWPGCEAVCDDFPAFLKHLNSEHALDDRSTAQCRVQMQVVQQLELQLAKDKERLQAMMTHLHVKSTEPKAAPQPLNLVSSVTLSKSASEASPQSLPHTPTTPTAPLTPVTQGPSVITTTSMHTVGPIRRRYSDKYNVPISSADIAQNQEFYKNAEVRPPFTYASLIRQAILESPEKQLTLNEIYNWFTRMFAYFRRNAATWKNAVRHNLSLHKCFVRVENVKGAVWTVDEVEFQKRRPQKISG
Assay: PD-seq (MBP pull-down with sequencing); 20 mM Tris-HCl pH 7.5, 100 mM NaCl, 1.5 mM MgCl2, 0.4 uM protein, 0.1 uM dsDNA library, 30 min, room temperature, amylose pull-down; high values mean tight binding
Conditions: protein: recombinant; tags: His6-MBP; chain copies: 2; dsDNA, one strand shown
In short: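 His6-MBP-tagged mouse FoxP3 or FoxP1 fragment lacking the N-terminus, expressed in E. coli, was mixed at 0.4 µM with 0.1 µM Klenow-filled double-stranded degenerate DNA library. Incubation was 30 min at room temperature in Tris pH 7.5 buffer with NaCl and MgCl2. Complexes were caught on amylose resin and washed three times; DNA was released with proteinase K, PCR-barcoded and Illumina-sequenced. Binding is reads-per-million enrichment, pull-down over input, with replicates pooled.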

| Sequence | binding signal |
| --- | --- |
| GATGATTGTTCTCCCAGCTGATGAATTGAATCGGTCGAGTAAACAAATTTTCCTAATCTTTCTGTTCAAGCGCCATCTAC | 0.838 RPM ratio (pull-down/input) |
| GATGATTGTTCTCCCAGCTGATGAATTTTGCCGTTCGAGTAAACAAATTTTCCTAATCTTTCTGTTCAAGCGCCATCTAC | 0.922 RPM ratio (pull-down/input) |
| GATGATTGTTCTCCCAGCTGATGAATTTTTCGAGTCGAGTAAACAAATTTTCCTAATCTTTCTGTTCAAGCGCCATCTAC | 0.859 RPM ratio (pull-down/input) |
| GATGATTGTTCTCCCAGCTGATGAATTAGAAGTTTCGAGTAAACAAATTTTCCTAATCTTTCTGTTCAAGCGCCATCTAC | 0.897 RPM ratio (pull-down/input) |
| GATGATTGTTCTCCCAGCTGATGAATTGGTATTGTCGAGTAAACAAATTTTCCTAATCTTTCTGTTCAAGCGCCATCTAC | 2.44 RPM ratio (pull-down/input) |
| GATGATTGTTCTCCCAGCTGATGAATTCGGAAAATCGAGTAAACAAATTTTCCTAATCTTTCTGTTCAAGCGCCATCTAC | 1.05 RPM ratio (pull-down/input) |
| GATGATTGTTCTCCCAGCTGATGAATTGCGGTTTTCGAGTAAACAAATTTTCCTAATCTTTCTGTTCAAGCGCCATCTAC | 1.24 RPM ratio (pull-down/input) |
| GATGATTGTTCTCCCAGCTGATGAATTCTTCACATCGAGTAAACAAATTTTCCTAATCTTTCTGTTCAAGCGCCATCTAC | 1.08 RPM ratio (pull-down/input) |
| GATGATTGTTCTCCCAGCTGATGAATTGAACTTCTCGAGTAAACAAATTTTCCTAATCTTTCTGTTCAAGCGCCATCTAC | 0.744 RPM ratio (pull-down/input) |
| GATGATTGTTCTCCCAGCTGATGAATTCAGTGCATCGAGTAAACAAATTTTCCTAATCTTTCTGTTCAAGCGCCATCTAC | 1.19 RPM ratio (pull-down/input) |
| GATGATTGTTCTCCCAGCTGATGAATTACTCGGCTCGAGTAAACAAATTTTCCTAATCTTTCTGTTCAAGCGCCATCTAC | 0.984 RPM ratio (pull-down/input) |
| GATGATTGTTCTCCCAGCTGATGAATTGCTCTGTTCGAGTAAACAAATTTTCCTAATCTTTCTGTTCAAGCGCCATCTAC | 0.993 RPM ratio (pull-down/input) |
| GATGATTGTTCTCCCAGCTGATGAATTTCTGTTATCGAGTAAACAAATTTTCCTAATCTTTCTGTTCAAGCGCCATCTAC | 1.69 RPM ratio (pull-down/input) |
| GATGATTGTTCTCCCAGCTGATGAATTCGCCTGCTCGAGTAAACAAATTTTCCTAATCTTTCTGTTCAAGCGCCATCTAC | 0.771 RPM ratio (pull-down/input) |
| GATGATTGTTCTCCCAGCTGATGAATTCAAGAGTTCGAGTAAACAAATTTTCCTAATCTTTCTGTTCAAGCGCCATCTAC | 0.821 RPM ratio (pull-down/input) |
| GATGATTGTTCTCCCAGCTGATGAATTCACTCTATCGAGTAAACAAATTTTCCTAATCTTTCTGTTCAAGCGCCATCTAC | 0.908 RPM ratio (pull-down/input) |
| GATGATTGTTCTCCCAGCTGATGAATTTAAAGTCTCGAGTAAACAAATTTTCCTAATCTTTCTGTTCAAGCGCCATCTAC | 0.851 RPM ratio (pull-down/input) |
| GATGATTGTTCTCCCAGCTGATGAATTATTGCTATCGAGTAAACAAATTTTCCTAATCTTTCTGTTCAAGCGCCATCTAC | 1.3 RPM ratio (pull-down/input) |
| GATGATTGTTCTCCCAGCTGATGAATTGCGGGGCTCGAGTAAACAAATTTTCCTAATCTTTCTGTTCAAGCGCCATCTAC | 0.905 RPM ratio (pull-down/input) |
| GATGATTGTTCTCCCAGCTGATGAATTACTCAGTTCGAGTAAACAAATTTTCCTAATCTTTCTGTTCAAGCGCCATCTAC | 1.14 RPM ratio (pull-down/input) |
| GATGATTGTTCTCCCAGCTGATGAATTAGATAACTCGAGTAAACAAATTTTCCTAATCTTTCTGTTCAAGCGCCATCTAC | 1.03 RPM ratio (pull-down/input) |

| Sequence | binding signal |
| --- | --- |
| GATGATTGTTCTCCCAGCTGATGAATTCGTTGTCTCGAGTAAACAAATTTTCCTAATCTTTCTGTTCAAGCGCCATCTAC | 1.01 RPM ratio (pull-down/input) |
| GATGATTGTTCTCCCAGCTGATGAATTCGGCAGGTCGAGTAAACAAATTTTCCTAATCTTTCTGTTCAAGCGCCATCTAC | 0.81 RPM ratio (pull-down/input) |
| GATGATTGTTCTCCCAGCTGATGAATTCCGTCTCTCGAGTAAACAAATTTTCCTAATCTTTCTGTTCAAGCGCCATCTAC | 0.818 RPM ratio (pull-down/input) |
| GATGATTGTTCTCCCAGCTGATGAATTGAAAAGTTCGAGTAAACAAATTTTCCTAATCTTTCTGTTCAAGCGCCATCTAC | 0.785 RPM ratio (pull-down/input) |
| GATGATTGTTCTCCCAGCTGATGAATTTAAGATGTCGAGTAAACAAATTTTCCTAATCTTTCTGTTCAAGCGCCATCTAC | 0.905 RPM ratio (pull-down/input) |
| GATGATTGTTCTCCCAGCTGATGAATTAGCCAATTCGAGTAAACAAATTTTCCTAATCTTTCTGTTCAAGCGCCATCTAC | 1.02 RPM ratio (pull-down/input) |
| GATGATTGTTCTCCCAGCTGATGAATTAACATACTCGAGTAAACAAATTTTCCTAATCTTTCTGTTCAAGCGCCATCTAC | 1.09 RPM ratio (pull-down/input) |
| GATGATTGTTCTCCCAGCTGATGAATTAATGAGATCGAGTAAACAAATTTTCCTAATCTTTCTGTTCAAGCGCCATCTAC | 0.846 RPM ratio (pull-down/input) |
| GATGATTGTTCTCCCAGCTGATGAATTGAAGTCATCGAGTAAACAAATTTTCCTAATCTTTCTGTTCAAGCGCCATCTAC | 0.885 RPM ratio (pull-down/input) |
| GATGATTGTTCTCCCAGCTGATGAATTGACAAACTCGAGTAAACAAATTTTCCTAATCTTTCTGTTCAAGCGCCATCTAC | 1.55 RPM ratio (pull-down/input) |
| GATGATTGTTCTCCCAGCTGATGAATTTCTCTGGTCGAGTAAACAAATTTTCCTAATCTTTCTGTTCAAGCGCCATCTAC | 0.845 RPM ratio (pull-down/input) |
| GATGATTGTTCTCCCAGCTGATGAATTTAGTCAGTCGAGTAAACAAATTTTCCTAATCTTTCTGTTCAAGCGCCATCTAC | 0.951 RPM ratio (pull-down/input) |
| GATGATTGTTCTCCCAGCTGATGAATTTTACTAGTCGAGTAAACAAATTTTCCTAATCTTTCTGTTCAAGCGCCATCTAC | 0.835 RPM ratio (pull-down/input) |
| GATGATTGTTCTCCCAGCTGATGAATTTTGATCCTCGAGTAAACAAATTTTCCTAATCTTTCTGTTCAAGCGCCATCTAC | 0.883 RPM ratio (pull-down/input) |
| GATGATTGTTCTCCCAGCTGATGAATTCGTCATTTCGAGTAAACAAATTTTCCTAATCTTTCTGTTCAAGCGCCATCTAC | 0.896 RPM ratio (pull-down/input) |
| GATGATTGTTCTCCCAGCTGATGAATTTCGCGCGTCGAGTAAACAAATTTTCCTAATCTTTCTGTTCAAGCGCCATCTAC | 0.972 RPM ratio (pull-down/input) |
| GATGATTGTTCTCCCAGCTGATGAATTTCTCGAGTCGAGTAAACAAATTTTCCTAATCTTTCTGTTCAAGCGCCATCTAC | 0.839 RPM ratio (pull-down/input) |
| GATGATTGTTCTCCCAGCTGATGAATTCAGCCGGTCGAGTAAACAAATTTTCCTAATCTTTCTGTTCAAGCGCCATCTAC | 0.799 RPM ratio (pull-down/input) |
| GATGATTGTTCTCCCAGCTGATGAATTCTCCATTTCGAGTAAACAAATTTTCCTAATCTTTCTGTTCAAGCGCCATCTAC | 0.871 RPM ratio (pull-down/input) |
| GATGATTGTTCTCCCAGCTGATGAATTCTGCTGTTCGAGTAAACAAATTTTCCTAATCTTTCTGTTCAAGCGCCATCTAC | 1.23 RPM ratio (pull-down/input) |
| GATGATTGTTCTCCCAGCTGATGAATTAACCTAGTCGAGTAAACAAATTTTCCTAATCTTTCTGTTCAAGCGCCATCTAC | 0.815 RPM ratio (pull-down/input) |

| Sequence | binding signal |
| --- | --- |
| GATGATTGTTCTCCCAGCTGATGAATTTGGATCCTCGAGTAAACAAATTTTCCTAATCTTTCTGTTCAAGCGCCATCTAC | 0.802 RPM ratio (pull-down/input) |
| GATGATTGTTCTCCCAGCTGATGAATTGGTAGTATCGAGTAAACAAATTTTCCTAATCTTTCTGTTCAAGCGCCATCTAC | 1.09 RPM ratio (pull-down/input) |
| GATGATTGTTCTCCCAGCTGATGAATTTCGCACGTCGAGTAAACAAATTTTCCTAATCTTTCTGTTCAAGCGCCATCTAC | 0.876 RPM ratio (pull-down/input) |
| GATGATTGTTCTCCCAGCTGATGAATTCGGTAATTCGAGTAAACAAATTTTCCTAATCTTTCTGTTCAAGCGCCATCTAC | 0.995 RPM ratio (pull-down/input) |
| GATGATTGTTCTCCCAGCTGATGAATTCGAAGGGTCGAGTAAACAAATTTTCCTAATCTTTCTGTTCAAGCGCCATCTAC | 0.726 RPM ratio (pull-down/input) |
| GATGATTGTTCTCCCAGCTGATGAATTCACTGGTTCGAGTAAACAAATTTTCCTAATCTTTCTGTTCAAGCGCCATCTAC | 0.869 RPM ratio (pull-down/input) |
| GATGATTGTTCTCCCAGCTGATGAATTGCGGTCATCGAGTAAACAAATTTTCCTAATCTTTCTGTTCAAGCGCCATCTAC | 1.05 RPM ratio (pull-down/input) |
| GATGATTGTTCTCCCAGCTGATGAATTGGATACGTCGAGTAAACAAATTTTCCTAATCTTTCTGTTCAAGCGCCATCTAC | 0.991 RPM ratio (pull-down/input) |
| GATGATTGTTCTCCCAGCTGATGAATTATGAGGCTCGAGTAAACAAATTTTCCTAATCTTTCTGTTCAAGCGCCATCTAC | 0.93 RPM ratio (pull-down/input) |
| GATGATTGTTCTCCCAGCTGATGAATTACTGAACTCGAGTAAACAAATTTTCCTAATCTTTCTGTTCAAGCGCCATCTAC | 0.945 RPM ratio (pull-down/input) |
| GATGATTGTTCTCCCAGCTGATGAATTGTACCTTTCGAGTAAACAAATTTTCCTAATCTTTCTGTTCAAGCGCCATCTAC | 0.954 RPM ratio (pull-down/input) |
| GATGATTGTTCTCCCAGCTGATGAATTTAGAGATTCGAGTAAACAAATTTTCCTAATCTTTCTGTTCAAGCGCCATCTAC | 0.992 RPM ratio (pull-down/input) |
| GATGATTGTTCTCCCAGCTGATGAATTGGTCGGTTCGAGTAAACAAATTTTCCTAATCTTTCTGTTCAAGCGCCATCTAC | 0.899 RPM ratio (pull-down/input) |
| GATGATTGTTCTCCCAGCTGATGAATTTGTGGACTCGAGTAAACAAATTTTCCTAATCTTTCTGTTCAAGCGCCATCTAC | 0.984 RPM ratio (pull-down/input) |
| GATGATTGTTCTCCCAGCTGATGAATTATGGAGGTCGAGTAAACAAATTTTCCTAATCTTTCTGTTCAAGCGCCATCTAC | 0.896 RPM ratio (pull-down/input) |
| GATGATTGTTCTCCCAGCTGATGAATTCCCGACGTCGAGTAAACAAATTTTCCTAATCTTTCTGTTCAAGCGCCATCTAC | 0.802 RPM ratio (pull-down/input) |
| GATGATTGTTCTCCCAGCTGATGAATTCCGCATATCGAGTAAACAAATTTTCCTAATCTTTCTGTTCAAGCGCCATCTAC | 0.854 RPM ratio (pull-down/input) |
| GATGATTGTTCTCCCAGCTGATGAATTTTGAAGGTCGAGTAAACAAATTTTCCTAATCTTTCTGTTCAAGCGCCATCTAC | 0.88 RPM ratio (pull-down/input) |
| GATGATTGTTCTCCCAGCTGATGAATTTAGGGGTTCGAGTAAACAAATTTTCCTAATCTTTCTGTTCAAGCGCCATCTAC | 0.92 RPM ratio (pull-down/input) |
| GATGATTGTTCTCCCAGCTGATGAATTTTCTCGATCGAGTAAACAAATTTTCCTAATCTTTCTGTTCAAGCGCCATCTAC | 0.967 RPM ratio (pull-down/input) |
| GATGATTGTTCTCCCAGCTGATGAATTGCCAGGGTCGAGTAAACAAATTTTCCTAATCTTTCTGTTCAAGCGCCATCTAC | 0.818 RPM ratio (pull-down/input) |

Source: article PMC12820563, “FoxP3 forms a head-to-head dimer in vivo and stabilizes its multimerization on adjacent microsatellites”
